Source: PubChem BioAssay AID463173 (ICCB-Longwood Screening Facility, Harvard Medical School, 2010)
The campaign covered roughly 52,000 compounds. About 1,700 (3.3%) were called active. Cut-off read from the data, not from the text of the source: active = survival mostly below about 52% (no sharp cut-off); inactive = mostly above about 56%. Some of the results follow.

Tested on: Wild type
Experiment: S. aureus survival, RN4220 and DeltatarO strains – OD600, teichoic acid synthesis inhibitors, primary screen (AID 463173)
Conditions: S. aureus RN4220 wild type/DeltatarO growth, OD600, 18 h, hits give low values, screened at 18.75 µg/mL (by protocol)

| Compound | survival |
| --- | --- |
| CCc1ccc(CNC(=O)Cc2c(C(=O)O)c(C)cn2C)cc1 | inactive: 63% |
| CCc1nnc(SCc2nc(-c3ccccc3)oc2C)c2cc3sccc3n12 | inactive: 78% |
| N#Cc1cc2cc3c(cc2nc1SCC(=O)N1CCN(c2ccc(F)cc2)CC1)OCCO3 | inactive: 113% |
| COc1ccc(-c2cn3nc(N4CCC(C(=O)Nc5cc(Cl)ccc5OC)CC4)sc3n2)cc1 | inactive: 81% |
| CC(C)(C)OC(=O)N1CCC(c2c(C(=O)N3CCN(c4ncccn4)CC3)cnn2-c2ccc(F)cc2F)CC1 | active: 1% |
| Cc1ccc(C)c(NC(=O)Cn2c(=O)n(Cc3cccs3)c(=O)c3cccnc32)c1 | inactive: 74% |
| COc1ccc(-c2nc(SCC(=O)N3CCC(C)CC3)n[nH]2)cc1 | inactive: 159% |
| Nc1c(C(=O)Nc2ccc(Cl)cc2F)sc2nc(-c3cccs3)ccc12 | inactive: 58% |
| COc1ccc(OC)c(NC(=O)C(CCSC)NS(=O)(=O)c2cccs2)c1 (stereo not given) | inactive: 78% |
| Cc1ccccc1C(=O)Nc1ccc2nc(SCCOc3ccccc3)sc2c1 | inactive: 90% |
| COc1ccc2sc(N3C(=O)C4CC=C(C)CC4C3=O)nc2c1 (stereo not given) | inactive: 99% |
| CCOC(=O)c1c(S(=O)(=O)NCC(=O)NCc2ccc(C)cc2)c(C)n(C)c1C | inactive: 81% |
| Fc1ccc(CNc2cc(-c3ccccc3)nc3nncn23)cc1 | inactive: 29% |
| COc1ccc(C(=O)Nc2ccc(C(=O)OCc3cc(=O)n4nc(C(C)C)sc4n3)cc2)cc1 | inactive: 67% |
| Cc1ccc(Cl)cc1NC(=O)/C(C#N)=C\c1cn(Cc2ccc(F)cc2)c2ccccc12 | inactive: 83% |
| CCN(CC)CCOC(=O)c1ccc(NC(=O)c2cc3c(=O)n(CC)c4ccccc4c3s2)cc1 | inactive: 106% |
| Cc1ccc(S(=O)(=O)N2CCC(C(=O)NCc3ccccc3Cl)CC2)cc1 | inactive: 64% |
| Cc1cccc(NC(=O)c2cc(S(=O)(=O)NCCc3ccccc3)ccc2F)c1C | inactive: 69% |
| COc1ccccc1C1c2c(-c3ccc(Cl)cc3)n[nH]c2C(=O)N1c1ccc(C)cc1 (stereo not given) | inactive: 85% |
| Cc1ccccc1C(=O)Nc1cccc(OCc2cc(=O)n3c(C)csc3n2)c1 | inactive: 92% |
| CCN1CCN(Cc2c(O)ccc3c(C)c(-c4ccc(OC)cc4)c(=O)oc23)CC1 | inactive: 136% |
| CCCCCn1c(=O)[nH]c2cc(C(=O)Nc3ccc(F)c(F)c3)ccc2c1=O | inactive: 98% |
| CCc1ccc(N2C(=O)C3C(C(=O)OC)=NN(C(C)=O)C3C2=O)cc1 (stereo not given) | inactive: 102% |

| Compound | survival |
| --- | --- |
| N#Cc1ccc(-c2cccs2)nc1SCC(=O)Nc1cccc(C(F)(F)F)c1 | inactive: 74% |
| Cc1cc(SCC(=O)NCc2ccc(Cl)cc2)nc(=O)[nH]1 | inactive: 91% |
| Cc1ccccc1S(=O)(=O)Cc1ccc(C(=O)N2CCN(c3cccc(Cl)c3)CC2)o1 | inactive: 68% |
| COc1ccc(NC(=O)C2=CC(c3ccco3)=NS(=O)(=O)N2C)cc1 | inactive: 107% |
| Cc1ccc(C)c(NC(=O)CN2CCSc3ccc(S(=O)(=O)N4CCCC4)cc32)c1 | inactive: 75% |
| COc1ccccc1N1CCN(c2ncnc3c2nnn3C)CC1 | inactive: 129% |
| CCOC(=O)c1oc2ccc(S(=O)(=O)n3nc(-c4ccc(C)cc4)cc3N)cc2c1C | inactive: 74% |
| COCCn1nnnc1CN(Cc1ccco1)Cc1cc2cc(OC)ccc2[nH]c1=O | inactive: 107% |
| COc1ccc(NC(=O)C2CCN(S(=O)(=O)c3cccc(-c4noc(C)n4)c3)CC2)cc1OC | inactive: 72% |
| CC(C)c1ccc(S(=O)(=O)N2CCC(n3c(C(F)(F)F)nc4cccnc43)CC2)cc1 | inactive: 75% |
| CC(C)c1ccc(CN(C(=O)c2cc3ccccc3oc2=O)C2CCS(=O)(=O)C2)cc1 (stereo not given) | inactive: 68% |
| CCOCCn1ccc2c(OCC(=O)Nc3ccc(C(N)=O)cc3)cccc2c1=O | inactive: 32% |
| Cc1cc(C)nc(NC(=O)C(c2ccccc2)c2ccccc2)n1 | inactive: 119% |
| Cn1c(-c2ccc(NC(=O)c3ccccc3)cc2)n[nH]c1=S | inactive: 113% |
| COc1cccc2sc(N(Cc3cccnc3)C(=O)c3ccc4c(c3)OCCO4)nc12 | inactive: 75% |
| CCCc1nc2ccccc2c(NC(=O)CN(CC)CC)c1CC | inactive: 103% |
| CC(NC(=O)C1CCN(S(=O)(=O)Cc2ccccc2)CC1)c1ccccc1 (stereo not given) | inactive: 86% |
| COC(=O)c1cc2occc2n1Cc1nc(-c2ccccc2)oc1C | inactive: 80% |
| CCCc1nn2c(=O)cc(COC(=O)c3ccc(NC(=O)COc4ccc(F)cc4)cc3)nc2s1 | active: 10% |
| CN(C)c1ccc(CNC(=O)C2CCN(c3nc4ccccc4[nH]3)CC2)cc1 | inactive: 45% |
| Cc1cc(S(=O)(=O)N2CCN(Cc3noc(CCC(=O)N4CCCCC4)n3)CC2)ccc1F | inactive: 68% |
| CCNS(=O)(=O)c1cccs1 | inactive: 108% |
| CC(C)c1ccc(-c2nnn(CC(N)=O)n2)cc1 | inactive: 115% |

| Compound | survival |
| --- | --- |
| Cc1cccc(NC(=O)Cn2cc(C(=O)C3CCCCC3)c3ccccc32)c1 | inactive: 116% |
| CSc1ccc(CCNC(=O)NCc2noc3ccccc23)cc1 | inactive: 89% |
| COc1ccc(Cn2c(CCC(=O)NCc3ccc(Cl)cc3)nc3cccnc32)cc1 | inactive: 110% |
| COc1cc2c(-c3cccc(Cl)c3)nc3c(c(C)nn3-c3ccccc3)c2cc1OC | inactive: 90% |
| COc1cccc(CNC(=O)c2cnc3sc(N4CCCC4)nn3c2=O)c1OC | inactive: 65% |
| CCOC(=O)COc1ccc(C2C(C(=O)OC)=C(C)NC3=C2C(=O)c2ccccc23)cc1Cl (stereo not given) | inactive: 130% |
| CCOC(=O)CC(NC(=O)CCc1c(C)nc2c(-c3ccccc3)c(C)nn2c1C)c1ccc(OC(C)C)cc1 (stereo not given) | inactive: 85% |
| COc1ccc(CNc2nc(-c3ccco3)nn2S(=O)(=O)c2ccc(Cl)cc2)cc1OC | inactive: 81% |
| O=C(CSc1cn(CC(=O)N2CCCC2)c2ccccc12)Nc1ccc(Cl)cc1 | inactive: 95% |
| COc1ccc(Cl)cc1NC(=O)c1cc2c(=O)n3ccccc3nc2s1 | inactive: 97% |
| CCOC(=O)c1cc(S(=O)(=O)Nc2cc(OC)ccc2OC)[nH]n1 | inactive: 123% |
| Cc1ccc(C(=O)NCC(c2ccc3c(c2)OCO3)N2CCOCC2)cc1C (stereo not given) | inactive: 82% |
| COC(=O)c1c(NC(=O)CCCOc2cccc(C)c2)sc2c1CCC2 | active: 12% |
| Cc1cc(O)c(C(c2cccc(F)c2)N2CCN(c3ccccc3)CC2)c(=O)n1Cc1ccco1 (stereo not given) | inactive: 65% |
| CN(c1ccccc1)S(=O)(=O)c1ccc(NC(=O)c2nc(S(C)(=O)=O)ncc2Cl)cc1 | active: 2% |
| COc1ccc(-c2c(C#N)c(SCC(=O)Nc3ccccc3C)nc(C)c2C(=O)Nc2ccc(Cl)cc2)cc1 | inactive: 146% |
| Cc1cc(C)n(-c2nnc(Nc3ccc(C)c(C)c3)c3ccccc23)n1 | inactive: 84% |
| CCOCC(=O)Nc1nnc(CC)s1 | inactive: 106% |
| O=C1Nc2ccccc2Oc2cc(Oc3ccccc3)ccc21 | inactive: 41% |
| Cc1ccc2cc(C#N)c(N3CCCN(C(=O)C4CCCCC4)CC3)nc2c1 | inactive: 120% |
| Cc1ccc(C)c(CN2C(=O)c3ccccc3S(=O)(=O)c3ccc(C(=O)OCC4CCCO4)cc32)c1 (stereo not given) | inactive: 71% |
| COc1ccc(NC(=O)Cn2c(SCc3ccc(C)cc3)nc3cccnc32)cc1OC | inactive: 92% |
| COc1ccc(NC(=O)c2sc3nc4c(cc3c2N)CN(Cc2ccccc2)CC4)c(OC)c1 | inactive: 67% |

| Compound | survival |
| --- | --- |
| CCCC(=O)Nc1nnc(S(=O)(=O)N(C)Cc2ccc(Cl)cc2)s1 | inactive: 101% |
| Cc1cccc(Cn2c(=O)n3nc(-c4ccccc4)nc3c3ccccc32)c1 | active: -24% |
| CC(C)c1ccc(S(=O)(=O)c2nnn3c2nc(N2CCCC2)c2sccc23)cc1 | inactive: 89% |
| COc1ccc(C2c3cc(OC)c(OC)cc3CC(=O)N2c2ccc(C)cc2)cc1 (stereo not given) | inactive: 86% |
| CCC(C)c1ccc2oc(-c3ccc(NC(=O)c4cc5ccccc5o4)cc3)nc2c1 (stereo not given) | inactive: 67% |
| COc1ccccc1Nc1nc(-c2ccccc2F)nc2ccccc12 | inactive: 73% |
| Cc1cccc(-c2nn3c(=O)cc(CN4CCN(C(=O)/C=C/c5ccccc5)CC4)nc3s2)c1 | inactive: 74% |
| Cn1c(=O)[nH]c2cc(-c3noc(-c4ccc(Br)cc4)n3)ccc21 | inactive: 55% |
| COc1cc2c(C(=O)Nc3cc(OC)c(OC)c(OC)c3)cn(C)c(=O)c2cc1OC | inactive: 66% |
| O=C(CC1N=C2c3ccccc3N=C(SCc3ccc(F)cc3)N2C1=O)NCc1ccc2c(c1)OCO2 (stereo not given) | inactive: 74% |
| O=C(NCCN1CCN(c2cccc(Cl)c2)CC1)Nc1ccccc1 | inactive: 73% |
| CCc1ccc(NC(=O)c2ccc(-c3ccccc3)s2)cc1 | inactive: 156% |
| Cn1c2c(c3ccccc31)CCc1nonc1-2 | inactive: 109% |
| CCOC(=O)C1CCN(c2ncnc3c2nc2n3CCCCC2)CC1 | inactive: 76% |
| Cc1cccc(C(=O)NCC(c2ccco2)S(=O)(=O)c2cccs2)c1 (stereo not given) | inactive: 90% |
| CCc1ccc(NC(=O)c2cnn(-c3ccccc3)c2-n2cccc2)cc1 | inactive: 16% |
| CCC(Oc1ccccc1)C(=O)Nc1nnc(S(=O)(=O)N(CC)CC)s1 (stereo not given) | inactive: 100% |
| CCc1cnc2c(c1SCC(=O)NCc1ccccc1Cl)c(=O)n(C)c(=O)n2C | inactive: 75% |
| COc1cccc(-c2noc(C3CCCN(S(=O)(=O)c4ccccc4F)C3)n2)c1 (stereo not given) | inactive: 118% |
| Cc1cccc(NC(=O)c2ccc(-c3ccccc3)s2)c1 | inactive: 82% |
| COC(=O)c1c(NC(=O)c2ccc(S(=O)(=O)N3CCC(C)CC3)cc2)sc2c1CCN(C)C2 | inactive: 45% |
